# Reference: PubChem BioAssay AID624417 (National Center for Advancing Translational Sciences (NCATS), 2012)
# “And” between values parts separate entries of the source, which are not always exact repeats. Equal entries are not always repeated. Hit rate of the full screen: of about 410,000 compounds, about 6,400 (1.6%) were called active. The shares of active, inactive and inconclusive entries below differ from those in the screen. The call rests on the fitted dose curve; in most records, active means well fitted inhibition curve with a large enough effect; inconclusive means small, poorly fitted or top-dose-only effect; inactive means no such curve, though single readings can be large or run the other way. Where the call is inconclusive, the potency comes from a doubtful curve fit.
# Molecular target: Glucagon-like peptide 1 receptor (Homo sapiens) (UniProt P43220)
# UniProt P43220, sequence (P43220 whole entry, looked up): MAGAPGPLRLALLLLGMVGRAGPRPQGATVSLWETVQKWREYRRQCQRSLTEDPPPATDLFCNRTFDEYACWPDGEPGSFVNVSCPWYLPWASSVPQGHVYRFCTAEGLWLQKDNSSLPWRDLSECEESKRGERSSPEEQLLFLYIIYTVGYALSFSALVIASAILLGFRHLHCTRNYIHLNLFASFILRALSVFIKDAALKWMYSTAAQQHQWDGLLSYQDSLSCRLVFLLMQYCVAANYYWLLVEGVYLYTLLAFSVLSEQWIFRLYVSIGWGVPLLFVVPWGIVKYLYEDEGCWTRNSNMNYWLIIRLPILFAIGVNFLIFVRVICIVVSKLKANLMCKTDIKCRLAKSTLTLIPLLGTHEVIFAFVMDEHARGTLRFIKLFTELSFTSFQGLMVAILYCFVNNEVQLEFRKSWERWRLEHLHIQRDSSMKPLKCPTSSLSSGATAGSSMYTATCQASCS
# Test: qHTS of GLP-1 Receptor Inverse Agonists (Inhibition Mode); further: nearly all actives have a fitted effect of over 55% in size
# Conditions: HEK293 GLP-1R CRE-luciferase, luminescence, 24 h, GLP-1R form is constitutively active; activity change, negative = inhibition: at 38.3 µM (top of the series) unless noted
# Method in brief: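 HEK293 cells stably co-expressing constitutively active GLP-1R and a cAMP-responsive luciferase reporter were seeded in DMEM with 10% Nu serum, given compounds after 12 h, and incubated 24 h at 37 deg C. Luminescence was then read.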
# On the % scale 0 is the no-effect control and ±100 the full control effect; potency means the concentration at half of the fitted maximal effect; tags describe the fitted curve by direction and shape.
SMILES,Potency,"activity change, negative = inhibition"
CCC1CCCCN1S(=O)(=O)c1ccc(NC(=O)C2CCN(C(=O)c3ccco3)CC2)cc1 (stereo not drawn),"inconclusive: 12.6 µM [inhibitor, partial curve, poor fit]",–
COc1ccc(C(=O)COC(=O)/C=C/c2ccccc2)c(OC)c1,"inconclusive: 10 µM [inhibitor, single point]",–
CCOC(=O)N1CCN(c2nnc(-c3ccccc3)c3ccccc23)CC1,"inconclusive: 10 µM [inhibitor, partial curve, poor fit]",–
O=C(c1ccncc1)N1N=C(c2ccc(Cl)cc2)CC1c1ccccc1O (stereo not drawn),–,inactive: -17.8%
COc1ccccc1NS(=O)(=O)c1cccc(NC(=O)c2ccc3ccccc3n2)c1,"inconclusive: 8.91 µM [inhibitor, partial curve, poor fit]",–
CCCn1c(=O)c2sccc2n2c(CCCC(=O)NCCOC)nnc12,–,inactive: 13.8%
COC(=O)CNC(c1ccccc1)c1cc(C)ccc1NC(=O)CNC(=O)OCc1ccccc1 (stereo not drawn),"inconclusive: 8.91 µM [inhibitor, partial curve, poor fit]",–
Cc1cc(C)c(CN2CCN(C(=O)Cn3cnc(C(=O)Nc4ccc(C)c(C)c4)n3)CC2)c(C)c1,"inconclusive: 14.1 µM [inhibitor, single point]",–
COc1cc(CN(CCN(C)C)Cc2ccccc2)ccc1OCc1ccccc1,"inconclusive: 22.4 µM [inhibitor, partial curve, poor fit]",–
COc1ccccc1N1CCN(C(=O)COc2cc(C)ccc2C)CC1,"inconclusive: 14.1 µM [inhibitor, single point]",–
Cc1c(NC(=O)CSc2nnc(-c3cccc(Cl)c3)o2)c(=O)n(-c2ccccc2)n1C,–,inactive: 5.29%
OCc1nc2ccccc2n1CCCCOc1ccccc1,"inconclusive: 28.2 µM [inhibitor, single point]",–
CC1CC(C)CN(C(=O)C(C)N(C)CC(=O)Nc2ccc(Cl)cc2)C1 (stereo not drawn),"inconclusive: 28.2 µM [inhibitor, single point]",–
CCn1cc(CN2CCCC(CO)(Cc3ccc(F)cc3)C2)c2ccccc21 (stereo not drawn),"inconclusive: 10 µM [inhibitor, single point]",–
COC(=O)NC(=S)Nc1ccc(Oc2ccc(Cl)cc2Cl)c(Cl)c1,"inconclusive: 4.47 µM [inhibitor, partial curve, poor fit]",–
OCCn1nc(-c2ccccc2)cc1-c1ccccc1,"inconclusive: 28.2 µM [inhibitor, single point]",–
CN(c1ccccc1)S(=O)(=O)c1cccc(NC(=O)CC(C)(C)C)c1,"inconclusive: 10 µM [inhibitor, partial curve, poor fit]",–
COc1cc(-c2cc3nc(NCc4cccs4)ccn3n2)cc(OC)c1OC,"inconclusive: 2.51 µM [inhibitor, full curve, poor fit]",–
Cc1ccc(S(=O)(=O)c2nnn3c2nc(Nc2ccc(C(C)C)cc2)c2sccc23)cc1C,–,inactive: 17.8%
CN1CCN(C(=S)NC(=O)c2ccc(Cl)cc2)CC1,"inconclusive: 20 µM [inhibitor, partial curve, poor fit]",–
O=C(CCSc1ccccc1)Nc1ccc(S(=O)(=O)N2CCOCC2)cc1,"inconclusive: 10 µM [inhibitor, partial curve, poor fit]",–

SMILES,Potency,"activity change, negative = inhibition"
Cc1cc(OCC(=O)Nc2cccc(S(=O)(=O)NC3=NCCCCC3)c2)ccc1Cl,"inconclusive: 10 µM [inhibitor, partial curve]",–
COc1cc(OC)cc(C(=O)Nc2nc(CC(=O)NCCc3ccccc3)cs2)c1,"inconclusive: 7.08 µM [inhibitor, partial curve, poor fit]",–
Cc1noc(/C=C/c2cccs2)c1S(=O)(=O)N1CCC(C(=O)NCCCN2CCC(C)CC2)CC1,"inconclusive: 6.31 µM [inhibitor, partial curve]",–
O=C(CCCc1nc(-c2ccccc2Cl)no1)NC1CCCCC1,"inconclusive: 17.8 µM [inhibitor, single point]",–
COc1ccccc1C=NN1CCCCCC1,"inconclusive: 28.2 µM [inhibitor, single point]",–
CN(C(=O)c1cccc(NC(=O)Cc2ccc(NC(=O)C3CCCN(C(=O)C4CCC4)C3)cc2)c1)C1CCC1 (stereo not drawn),–,inactive: 26%
Cc1ccc(-c2nc3c4cnn(-c5cc(Cl)ccc5Cl)c4ncn3n2)cc1,–,inactive: 6.03%
Cc1ccc(CCNC(=O)CCSCc2ccc(Cl)cc2)cc1,"inconclusive: 10 µM [inhibitor, partial curve] and inconclusive: 28.2 µM [inhibitor, single point]",–
Cc1ccc(C(=O)N(CCc2ccccc2)Cc2ccccc2)cc1S(=O)(=O)N1CCCCC1,"inconclusive: 12.6 µM [inhibitor, single point]",–
NC(=O)C1=CN(Cc2ccc(Cl)cc2)CCC1C(F)(F)F (stereo not drawn),"inconclusive: 11.2 µM [inhibitor, partial curve]",–
CCc1nc2c(OCC(N)=O)cccn2c1N(C)C(=O)C(C)C,–,inactive: 10.1%
COc1cccc(-c2cc(C(F)(F)F)nc(-n3cc(C)cn3)n2)c1,"inconclusive: 28.2 µM [inhibitor, single point]",–
Cc1ccc2nc(SCC(=O)N3CCCC3)nc(=O)n2c1,–,inactive: 1.48%
Cc1cc(NC(c2cccnc2)c2ccc3cccnc3c2O)no1 (stereo not drawn),"inconclusive: 7.94 µM [inhibitor, partial curve, poor fit]",–
N/C(=N\OC(=O)c1ccc(Cl)cc1Cl)c1ccccn1,active: 5.62 µM,–
O=C(CSc1oc(-c2ccco2)nc1S(=O)(=O)c1ccc(Cl)cc1)c1ccccc1,"inconclusive: 28.2 µM [inhibitor, single point]",–
OCC1(CCc2ccccc2)CCN(Cc2cc(F)ccc2-n2cccn2)CC1,–,inactive: -30.3%
COc1cccc(CSc2nc3n(n2)C(c2ccccc2C)C(C(=O)Nc2ccccc2OC)=C(C)N3)c1 (stereo not drawn),–,inactive: -27.5%
COc1ccc(NC(=O)NCc2ccc3c(c2)OCO3)cc1,–,inactive: 15.6%
CCOc1ccc2nc(N3CCCN(C(=O)Nc4ccccc4C)CC3)c(C#N)cc2c1,"inconclusive: 11.2 µM [inhibitor, partial curve, poor fit]",–
Cc1ccccc1-c1nc(CN2CCCC(C(=O)NCCCN3CCOCC3)C2)c(C)o1 (stereo not drawn),"inconclusive: 3.98 µM [inhibitor, partial curve, poor fit]",–

SMILES,Potency,"activity change, negative = inhibition"
O=C1CCN(CCc2ccccc2)CCN1[C@H](CSc1ccccc1)c1ccccc1,"inconclusive: 11.2 µM [inhibitor, partial curve, poor fit]",–
COc1ccc(S(=O)(=O)N2CCC(Nc3ccccc3Cl)CC2)cc1,"inconclusive: 12.6 µM [inhibitor, single point]",–
Cc1cc(=O)[nH]c(N/N=C/c2c[nH]c3ccccc23)n1,–,inactive: 44.1%
CCN(C[C@H]1N[C@@](Cc2ccccc2)(C(=O)OC)[C@H]2C(=O)N(C)C(=O)[C@@H]12)S(=O)(=O)c1ccc(C(F)(F)F)cc1,"inconclusive: 14.1 µM [inhibitor, single point]",–
O=C(CSc1nc2ccccc2o1)N1c2ccccc2Sc2ccccc21,"inconclusive: 10 µM [inhibitor, partial curve, poor fit]",–
Cc1ccc(CC2(c3ccccc3)NC(=O)NC2=O)cc1 (stereo not drawn),"inconclusive: 3.98 µM [inhibitor, partial curve, poor fit]",–
Cc1cccc(C(CC(=O)NCC2(c3ccccc3)CCCC2)c2ccccc2)c1O (stereo not drawn),"inconclusive: 10 µM [inhibitor, partial curve, poor fit]",–
Cc1nn2c(-c3cccc(NC(=O)CSc4nc5ccccc5o4)c3)nnc2c2ccccc12,"inconclusive: 28.2 µM [inhibitor, single point]",–
CCC(C(=O)NCCc1ccc(Cl)cc1)n1nc(C)c2c(C)n(-c3ccccc3)nc2c1=O (stereo not drawn),–,inactive: -11.8%
COc1ccccc1C(=O)COC(=O)c1c(-c2ccccc2)noc1C,"inconclusive: 15.8 µM [inhibitor, partial curve, poor fit]",–
Cc1ccc2occ(/C=N/NC(=O)c3ccccc3C)c(=O)c2c1,"inconclusive: 4.47 µM [inhibitor, partial curve, poor fit]",–
COc1ccc(Br)cc1CN(C)CC(=O)Nc1cccc(S(=O)(=O)N2CCCC2)c1,"inconclusive: 10 µM [inhibitor, partial curve, poor fit]",–
CN(c1ccc(Cl)cc1)c1cc(=O)n(C)c2ccccc12,"inconclusive: 11.2 µM [inhibitor, single point]",–
Cc1cc2ccc3ccccc3c2cc1CN(C)C,"inconclusive: 7.94 µM [inhibitor, partial curve, poor fit]",–
CC1CCCN(S(=O)(=O)c2ccc(C(=O)Nc3nnc(C4CC4)o3)cc2)C1 (stereo not drawn),"inconclusive: 28.2 µM [inhibitor, single point]",–
COc1ccc(-c2cccc(NS(=O)(=O)c3cc(C)c(Cl)cc3C)c2)nn1,–,inactive: -26.9%
O=C(O)c1cccc(-c2csc(C(O)c3ccccc3)n2)c1 (stereo not drawn),"inconclusive: 11.2 µM [inhibitor, single point]",–
Cc1noc(C)c1COc1cccc(C(=O)Nc2ccc(OCc3ccccc3)cc2)c1,"inconclusive: 5.01 µM [inhibitor, full curve, poor fit]",–
COc1cccc2c(Nc3ccccc3C)cc(C)nc12,"inconclusive: 20 µM [inhibitor, partial curve, poor fit]",–
Cc1ccc(-c2nn(-c3ccccc3)cc2C(=O)NCCCN2CCOCC2)cc1,"inconclusive: 12.6 µM [inhibitor, partial curve, poor fit]",–
CCOc1ccc(N(CC(=O)Nc2cccc(F)c2)S(=O)(=O)c2c(C)noc2C)cc1,"inconclusive: 7.94 µM [inhibitor, partial curve, poor fit]",–
